Experimental data: PubChem BioAssay AID1346428 (National Center for Advancing Translational Sciences (NCATS), 2018)
About 1,200 (2.5%) of roughly 48,000 compounds were called active. Not shown: some 2% with an inconclusive outcome.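 The calls were made as follows: active = activation of at least 60% and not above a set upper limit (about 1 call in 100 departs from these limits); inconclusive = activation of 40% to 60%, or above that upper limit; inactive = activation under 40%.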 This is one part of the list.

target: Probable G-protein coupled receptor 32 (Homo sapiens) (UniProt O75388); assay: qHTS for Agonists of Human Resolvin D1 Receptor DRV1; settings: CHO-K1 GPR32 beta-arrestin PathHunter luminescence, 90 min; at 76.9 µM; active compounds read high; zero percent set by DMSO-only wells; also: 0% is about no effect
UniProt O75388, sequence (O75388 whole entry, looked up): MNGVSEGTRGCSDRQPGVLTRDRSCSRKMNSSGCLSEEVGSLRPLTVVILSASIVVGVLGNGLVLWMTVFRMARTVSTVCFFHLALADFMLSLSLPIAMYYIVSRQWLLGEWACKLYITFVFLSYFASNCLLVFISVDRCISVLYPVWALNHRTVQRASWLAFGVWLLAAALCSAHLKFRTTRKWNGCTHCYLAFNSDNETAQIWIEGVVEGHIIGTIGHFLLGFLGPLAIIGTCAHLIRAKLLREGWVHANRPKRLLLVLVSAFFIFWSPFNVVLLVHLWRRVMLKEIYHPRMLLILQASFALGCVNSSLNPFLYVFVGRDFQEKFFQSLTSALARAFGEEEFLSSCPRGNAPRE
Summary of the method: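 PathHunter beta-arrestin recruitment in CHO-K1 cells stably expressing ProLink-tagged GPR32. Cells were exposed to compound for 90 min at 37 C, then chemiluminescence was read after 1 h detection at ambient temperature; DMSO served as basal control.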

activation, inactive:
CCOC(=O)C1CCCN(C(=O)C2CCN(c3nnc(C)c4c(C)n(-c5ccccc5)nc34)CC2)C1 (stereo not drawn) -7.27%
CCOc1ccccc1NC(=O)C(Cc1ccccc1)NS(=O)(=O)c1ccc(Br)s1 (stereo not drawn) -11.1%
Cc1ccc(C)c(N2CCN(C(=O)C3CCN(S(=O)(=O)c4cn(C)cn4)CC3)CC2)c1 -13.3%
CCc1ccc(CNC(=O)C(CC)n2ccc3cc(S(=O)(=O)N4CCCCC4)ccc32)cc1 (stereo not drawn) 4.81%
COc1ccc(CNS(=O)(=O)c2cc(C(=O)Nc3cc(Cl)cc(Cl)c3)ccc2F)cc1 9.3%
CC(=O)OCC(=O)NCCCOc1cccc(CN2CCCCC2)c1 10.9%
Cc1ccc(Cn2c(C(=O)O)c(CNCc3ccccc3Cl)c3ccc(C)cc32)cc1 13.4%
O=C(O)C1CCNCC1 -3.72%
CCOC(=O)C1CCN(c2ncnc3c2c(-c2ccccc2)cn3-c2cccc(C)c2)CC1 -37.9%
Cc1oc2c(c(C)cc3oc(=O)c(CC(=O)NCCc4ccccc4F)c(C)c32)c1C -13%
CCc1ccc(NC(=O)CN2CCN(Cc3ccccc3)S2(=O)=O)cc1 -5.26%
Cc1cccc(NC(=O)CCCn2c(C)c3cnn(-c4ccccc4)c(=O)c3c2C)c1C -21.7%
Cc1ccccc1-n1c(SCC(=O)Nc2ccc(Cl)cc2F)nnc1-c1cc2occc2n1C -18.3%
Cc1ccc(CN2CCc3nc(N4CCN(c5ncccn5)CC4)ncc3C2)cc1 -30.4%
COc1ccc(C2=CC(c3ccc(F)cc3)n3ncc(C(=O)Nc4ccc(C)cc4)c3N2)cc1 (stereo not drawn) -0.925%
Cc1ccc(C)n1-c1nnc(N2CCCC(C(=O)NCc3ccc(Cl)cc3)C2)s1 (stereo not drawn) -25.5%
Cc1ccc(OCC(=O)Nc2ccc(S(=O)(=O)Nc3cc(C)nc(C)n3)cc2)c(Br)c1 44.7%
CCOc1ccccc1CNS(=O)(=O)c1ccc2c(c1)CCCN2C(C)=O 9.01%
O=C(Cn1ccn(-c2ccc(F)c(F)c2)c(=O)c1=O)Nc1ccccc1F -11.1%
Cc1ccc(-c2nc3cc(C(C)C)ccc3o2)cc1NC(=O)c1cc2ccccc2o1 -11%
Cc1ccc(N(CC(=O)NCCc2ccc(Cl)cc2)S(=O)(=O)N(C)C)cc1 -3.26%
O=C(CCSc1nc(-c2ccco2)cc(C(F)(F)F)n1)Nc1cccc(O)c1 34.9%
O=C(Nc1ccc2oc(-c3cccnc3)nc2c1)c1cccc(Br)c1 -1.94%
